In PubChem BioAssay AID720708 (National Center for Advancing Translational Sciences (NCATS), 2013):
About 660 (0.18%) of roughly 360,000 compounds were called active. Inconclusive means that the source gave no clear call. Such entries were picked first, then a sample of the others. Calls follow the shape of the dose curve; as a rule, active = well fitted inhibition curve with a large enough effect; inconclusive = small, poorly fitted or top-dose-only effect; inactive = no such curve, though single readings can be large or run the other way. Potencies of inconclusive entries are left out as doubtful fits.

What follows are compounds tested against Rap guanine nucleotide exchange factor 4 (Homo sapiens) (UniProt Q8WZA2) (assay: qHTS for Antagonist of cAMP-regulated guanine nucleotide exchange factor 2 (EPAC2): primary screen). Details: EPAC2 GEF exchange of Rap1B-BODIPY-GDP, fluorescence; series mostly up to 114 µM.
Chain of UniProt Q8WZA2 (Q8WZA2 whole entry, looked up): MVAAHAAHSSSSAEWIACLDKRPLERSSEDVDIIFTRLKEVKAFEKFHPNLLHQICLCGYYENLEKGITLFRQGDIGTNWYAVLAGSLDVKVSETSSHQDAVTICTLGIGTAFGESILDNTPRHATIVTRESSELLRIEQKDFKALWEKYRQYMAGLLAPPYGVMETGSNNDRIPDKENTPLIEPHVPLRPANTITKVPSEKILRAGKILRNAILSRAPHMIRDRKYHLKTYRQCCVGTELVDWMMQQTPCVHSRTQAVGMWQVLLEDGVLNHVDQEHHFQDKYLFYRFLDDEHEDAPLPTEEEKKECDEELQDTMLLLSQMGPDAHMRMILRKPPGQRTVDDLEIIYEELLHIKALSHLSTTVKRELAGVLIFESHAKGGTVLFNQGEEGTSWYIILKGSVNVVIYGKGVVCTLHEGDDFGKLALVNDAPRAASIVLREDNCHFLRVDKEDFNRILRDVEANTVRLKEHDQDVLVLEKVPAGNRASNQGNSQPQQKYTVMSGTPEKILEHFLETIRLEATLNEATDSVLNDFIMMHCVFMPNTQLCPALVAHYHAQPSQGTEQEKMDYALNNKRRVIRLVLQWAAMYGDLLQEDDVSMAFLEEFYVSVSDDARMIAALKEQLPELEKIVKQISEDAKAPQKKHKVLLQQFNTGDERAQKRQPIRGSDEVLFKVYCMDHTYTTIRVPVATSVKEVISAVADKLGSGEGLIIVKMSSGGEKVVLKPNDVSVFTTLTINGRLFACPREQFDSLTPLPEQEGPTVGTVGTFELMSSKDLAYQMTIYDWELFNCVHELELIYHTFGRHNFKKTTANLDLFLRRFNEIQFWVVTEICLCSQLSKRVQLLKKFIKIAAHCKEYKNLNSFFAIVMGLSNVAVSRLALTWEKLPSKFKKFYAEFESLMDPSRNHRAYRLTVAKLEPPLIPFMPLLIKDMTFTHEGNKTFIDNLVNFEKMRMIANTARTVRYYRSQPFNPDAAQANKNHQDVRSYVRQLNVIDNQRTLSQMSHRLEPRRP
Also: nearly all actives have a fitted effect of over 45% in size.
Potency is read from the fitted curve at half-maximal effect; tags tell the direction and shape of the fitted curve.

| Structure (SMILES) | Potency |
| --- | --- |
| CCN(CC)c1nc(C)nc2c1sc(=S)n2C | inconclusive [inhibitor, full curve] |
| Cc1cc(Nc2ccccc2C(=O)O)n(-c2ccc([N+](=O)[O-])cc2)n1 | inconclusive [inhibitor, partial curve] |
| Oc1ccc(/C=C/c2cc(O)cc(O)c2)cc1 | inconclusive [inhibitor, partial curve] |
| COc1ccc(S(=O)(=O)N2CCCCC2c2cc(C(=O)NCc3ccccc3)no2)cc1 (centres undefined) | inconclusive [inhibitor, full curve, poor fit] |
| O=c1ccc2ccccc2n1Cc1cccc(F)c1 | inconclusive [inhibitor, partial curve] |
| O=C1NC[C@H](CC2CCCCC2)N(CCc2cc(C(F)(F)F)cc(C(F)(F)F)c2)C1=O | inconclusive [inhibitor, full curve, poor fit] |
| Cc1cccc(/C(N)=N/OC(=O)Cc2ccccc2)c1 | inconclusive [inhibitor, single point] |
| CC(O)(c1ccccc1)c1nc(-c2cccc(F)c2)cs1 (centres undefined) | inconclusive [inhibitor, full curve] |
| CCC(C)Sc1cccc(-c2nc3cnccn3c2NC2CCCCC2)c1 (centres undefined) | inconclusive [inhibitor, full curve] |
| CCCN(CC1CC1)c1cc2c(c3c1ccn3C)C1CCC2C1 (centres undefined) | inconclusive [inhibitor, full curve] |
| C/C(=N\NC(=O)c1ccccc1-n1cccc1)C1CC1 | inactive |
| O=C(NC(=S)Nc1ccccc1N1CCOCC1)c1ccc(-c2ccccc2F)o1 | inactive |
| N#CCOC(=O)[C@H](Cc1c[nH]c2ccccc12)NS(=O)(=O)c1ccc(Cl)cc1 | inconclusive [inhibitor, partial curve] |
| COc1ccc(-c2c(-c3ccccc3OC)oc3ccccc23)cc1F | inconclusive [inhibitor, full curve] |
| COc1ccc(C2C3=C(CC(C)(C)CC3=O)Nc3c2c(=O)n(C)c(=O)n3C)cc1OC (centres undefined) | inactive |
| Fc1ccc(-c2n[nH]c(=S)n2Cc2ccccc2)cc1 | inactive |
| O=c1onc(-c2ccccc2)n1-c1cc(Cl)cc(Cl)c1 | inconclusive [inhibitor, partial curve] |
| CC(=O)/C(C#N)=C1\NC(=O)C(Cc2cc(Cl)ccc2Cl)S1 (centres undefined) | inconclusive [inhibitor, partial curve] |
| O=C(c1ccccc1)c1ccc2ccccc2c1 | inconclusive [inhibitor, partial curve] |
